{
  "source": "PubChem BioAssay (NCI)",
  "test_system": "DU-145 prostate",
  "experiment": "NCI-60 one-dose screen, 48 h (100 = growth as untreated, 0 = no growth, -100 = all killed)",
  "conditions": "0.25 µM",
  "note": "Some compounds were tested as several samples or in several runs, with calls that do not always agree.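 48-hour exposure, single concentration, 96-well plates; percent growth endpoint where 0 means no net growth. Active: below 10.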 Not every entry of the source has a single result; some have several. The other results are left out here. There may be further records. These are repeated runs of one drug, at the concentration stated with the values; one value stands for one run. Counts like (3×) stand for listed records that agree.",
  "data": [
    {"smiles": "COc1cccc2c1C(=O)c1c(O)c3c(c(O)c1C2=O)C[C@@](O)(C(=O)CO)C[C@@H]3OC1CC(N)C(O)C(C)O1", "note": "(stereo not given in full)", "values": [
      {"measurement": "growth", "setting": "runs of 2006", "value": "active: -8.78% and inactive: 13.4%"},
      {"measurement": "growth", "setting": "runs of 2007", "value": "inactive: 14, 24.6, 10.2, 14.1, 11.4, 21.3, 22.5, 28.8 (2×), 36.3, 11.8, 13.2, 31.1, 22.1 (2×), 35, 24.7, 15.9, 35.4, 57.2, 24.3, 46.4, 10.7, 28, 22, 39.2, 40.1, 50.5, 33.5, 15.7, 17.2, 23.7, 20% and active: -9.77, 9.07, 3.29, -39, 5.2, 1.01%"},
      {"measurement": "growth", "setting": "runs of 2008", "value": "inactive: 30.5, 22.9, 28.7 (2×), 26.2, 21.3, 34, 27.2, 28.1, 30, 25.6, 26.8, 29.6, 23.6, 32, 27.6, 10.9, 12.6, 14.7 (2×), 15, 23.4 (2×), 19.9, 109, 26.3, 12.2, 22.2, 19.8, 17.2, 13.1, 15.7, 16.4, 31.4, 36.8, 34.8, 52.6, 29.1, 47.1, 44.5, 11.9, 20.5, 21.4, 15.5, 23.5% and active: 5.49, 9.03, 2.46, 9.82, 8.66, 7.75, 6.96, 6.44, 9.74, 8.23%"},
      {"measurement": "growth", "setting": "runs of 2009", "value": "inactive: 16.9, 14.9, 23.1 (2×), 18.7 (2×), 12.8, 28.6, 28.5, 22.2, 26.8, 27.7, 30.7, 26.7, 19.4 (2×), 27.1, 23.7, 31.8, 30.3, 18, 26.4, 26.3, 19, 16.1, 19.3, 24.1, 20, 24.6, 32.8, 21.4, 32, 15.1, 30, 23.9, 13.5, 24.2 (2×), 20.9 (2×), 34, 31.3, 24.9, 17.9 (2×), 16.7, 35.5, 60.9, 52.7, 31, 38.5, 34.8, 21.9% and active: 8.54, -34.2, 5.7, 2.16, 9.78, -2.51, -17.6%"},
      {"measurement": "growth", "setting": "runs of 2010", "value": "inactive: 41.7, 35.5, 34.4, 28.6, 36.3, 49, 32.9 (2×), 39.4, 47.1, 31.4, 28.2, 27.2 (2×), 26.9, 18.7, 18.8, 31.7, 12.6, 20.7, 12.1, 25.7, 14.8, 13.2, 30.6, 35.3, 26.7 (2×), 19.8, 30.1, 24.9, 28.1, 13.6, 38.4, 20.9, 27.3, 14 (2×), 36.7, 28.9, 23, 29.1, 25.3, 22.4, 25.5, 30.4, 29, 26.8, 22% and active: 5.51%, 3.06%, 2.73%"},
      {"measurement": "growth", "setting": "runs of 2011", "value": "inactive: 29, 31.3 (2×), 32.3 (3×), 28 (3×), 38.6, 27.6, 20.5, 30.3 (2×), 26.7, 38.3, 33.7, 31.7, 39.8, 37.2 (2×), 39.2, 36.7, 34.4, 30.8, 27.4, 26.1, 25, 23.6, 22.3, 21.6, 22.4 (2×), 22, 35.1, 37.1 (2×), 36.4, 38.7, 20.8, 18.6, 23.5, 23.7, 24.4, 14.8, 26.8, 10.5, 29.1, 17.9, 30, 24.3, 21%"},
      {"measurement": "growth", "setting": "runs of 2012", "value": "inactive: 31.7 (2×), 19.1, 19.8, 20.7 (2×), 28.9, 40.4, 26.1, 22.2 (2×), 21, 18.6 (2×), 21.9, 12.8, 23.9 (5×), 22.5, 16.8, 23.1, 22.9 (2×), 21.6, 30.4 (2×), 33, 24.6, 25, 24.9, 22, 34.3, 27.1, 24.3 (2×), 26.8 (2×), 28, 25.6, 19, 24.4, 32.8, 31.4, 39.2, 51.5 (2×), 41.7, 60.5, 45.5, 44.1, 53.7, 47.2, 62.6, 58.9, 21.5 (2×), 30 (2×), 26.2, 26.6, 20, 29.2, 29.9, 21.4, 23.4% and active: 3.61%"},
      {"measurement": "growth", "setting": "runs of 2013", "value": "inactive: 11.7, 26.6, 30.1 (2×), 32, 30.6, 29.3, 29.6, 26.2, 38.3, 31.2 (2×), 27, 36, 37.6, 28.7 (2×), 41.2, 36.4, 27.7, 36.3 (2×), 28.2 (2×), 42.1, 30.5, 21, 38.8, 28.9 (2×), 41.7, 37.4, 29.2 (2×), 37.3, 29.7, 38.1, 24 (2×), 30.4 (2×), 27.6 (2×), 24.2 (2×), 32.3, 22.3, 32.4, 33.5, 24.8, 34.3, 33.2, 38, 21.9, 13.5, 24.9, 22.5 (2×), 24.4, 29.5, 23.4, 28.4, 21.1, 24.1, 27.3, 30%"},
      {"measurement": "growth", "setting": "runs of 2014", "value": "inactive: 24.9 (2×), 24.6, 22.2, 13.6, 20.5 (2×), 21.6 (2×), 18.8, 21.5, 19.3, 25.9 (3×), 22.1 (4×), 26.8, 27, 16.8, 27.7, 26.1 (3×), 25.2 (2×), 26.5, 27.5, 27.1 (2×), 32.4, 29, 24.1, 23.9 (2×), 28.2, 26.3, 28.1, 24.8, 27.6, 27.3, 24, 28.5, 25.7 (5×), 29.2, 30.6, 19.4, 18.6 (2×), 22.9 (2×), 24.7 (2×), 24.3, 21.1, 22.6, 23.7, 23.4 (2×), 25.1, 31.1, 21.4, 33, 26, 32.1, 36.7, 30.8, 26.2, 22.3% and active: 8.28%"},
      {"measurement": "growth", "setting": "runs of 2015", "value": "inactive: 31.6, 28.9 (2×), 23.1, 24.4, 21.9, 25.1, 31.1, 26.9 (2×), 24.9 (3×), 24.7 (2×), 24 (2×), 29.1 (2×), 30.9, 39.5, 23, 21, 21.5, 20.8, 22.3, 22.2 (3×), 22.6 (2×), 34.4, 30.6, 29.7, 25.5 (2×), 27.1, 26.8, 24.6 (2×), 23.7, 20.2, 18.8, 21.1, 24.8, 24.1 (3×), 25.7 (2×), 27.5, 27.2, 22, 22.5, 30.5, 20.5, 20, 19.8, 50.8, 27, 28, 25.2 (2×), 25.3, 20.9, 33.6, 33.9, 30, 28.2, 27.6, 26.6, 23.3, 28.6, 30.3, 24.3, 28.7 (2×), 32.2, 38.7, 26, 35, 36.7, 35.9%"},
      {"measurement": "growth", "setting": "runs of 2016", "value": "inactive: 31, 28.6, 26.2, 35.9, 22.3, 28.4, 27.1, 24.3 (2×), 24, 21.9, 23 (2×), 20.9, 19.4, 23.1, 25.5, 17.7, 22.5, 18.1 (2×), 19.2, 23.5, 20.4, 28.1, 22.6, 26.7 (2×), 24.2 (2×), 23.6, 18.8, 26.1, 28, 31.3, 35.7, 40.1, 32.2 (2×), 29.2, 25.6, 22.8, 27.7, 27.2, 28.5, 31.7, 26.3, 33.5, 24.7, 33.6, 30.5, 43.7, 37, 36, 33, 39.8, 38.8, 43.3, 39, 34.8, 39.4, 40, 47.9, 41.2, 39.6, 40.3, 33.3, 30.3, 33.7, 31.6 (2×), 30.8, 38, 30.7%"},
      {"measurement": "growth", "setting": "runs of 2017", "value": "inactive: 34.3, 33, 29.3, 31.4, 32.1, 28.4, 27.3, 23, 21.3 (2×), 25.9 (2×), 24.7 (2×), 23.5 (3×), 22.9, 20.5 (2×), 20.9 (2×), 23.4 (3×), 19.3, 22.6 (4×), 24.2, 23.7, 24.9, 26.2 (2×), 22.3, 28.7, 25.6, 23.1 (2×), 30.1 (2×), 30.8, 21.6, 26.3 (2×), 27.5 (2×), 18.3, 20.4, 21.9, 26.7 (2×), 23.3 (2×), 22.5, 15.6, 23.6 (2×), 24 (2×), 22, 19.2 (2×), 18.7 (2×), 19.9, 31.5, 32.2 (2×), 24.6, 25.1, 22.1, 29, 29.9, 30, 26.1, 28, 31, 37, 32.7%"},
      {"measurement": "growth", "setting": "runs of 2018", "value": "inactive: 29.7, 31.7, 27.7, 28.8 (2×), 30.3, 28.9, 24 (3×), 26 (2×), 26.9, 26.6 (2×), 29.2, 31.2 (2×), 30.6, 36.2, 34.7, 39.7, 30.5, 29 (3×), 27 (2×), 26.1, 22.3, 30.4, 34.4, 30.1, 26.3 (2×), 23.7 (2×), 27.3, 28.2, 23, 24.1, 22.1, 21.1, 25, 24.3, 25.1, 29.3, 27.1, 25.5, 27.4, 28.1, 24.8, 33.6, 20.2%"},
      {"measurement": "growth", "setting": "runs of 2019", "value": "inactive: 18.6, 11.8, 11.9, 17.7, 14.9, 23.4, 23.1, 14.8, 16.4, 15.9, 17.9 (2×), 25.5, 26.3 (2×), 19.9, 22.1, 16, 16.8, 14.6, 15, 17.2, 18.1, 12.6 (2×), 19.1, 16.7, 18, 20.7, 19.4, 16.1, 22.6, 25.6 (2×), 23.5, 23.6, 26.2, 25.9, 21, 31.3, 20.2%"},
      {"measurement": "growth", "setting": "runs of 2020", "value": "inactive: 19.1, 22.4, 20.9, 19.3, 22.2, 22, 27.2, 21, 27.6, 22.5, 24.2, 28.9, 22.9, 26.7 (2×), 47.3, 25.7, 37.5, 30.1, 26.6, 30.8, 25.9, 31.7%"}
    ]}
  ]
}
